The list shows a part of the results.
Columns and labels:
Experiment in all cases: glycan array binding signal (z-score within array); higher = stronger binding
Conditions in all cases: glycan notation: IUPAC condensed, linker removed
[1] = molecular target: Neu5Ac(a2-3)Gal6S(b1-4)[Fuc(a1-3)]GlcNAc
Method in brief: (§1)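 The Consortium for Functional Glycomics database supplied 3228 glycan arrays, of which those lacking an available protein sequence were dropped. The binding signal, a within-array Z-score, was averaged across arrays of the same protein sequence and across linkers. Negative scores can be read as non-binding.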

[2] = molecular target: Neu5Ac(a2-3)GalNAc
Method in brief: as §1

[3] = molecular target: Neu5Ac(a2-3)GalNAc(b1-4)GlcNAc
Method in brief: as §1

[4] = molecular target: Neu5Ac(a2-3)[GalNAc(b1-4)]Gal(b1-4)Glc
Method in brief: as §1

[5] = molecular target: Neu5Ac(a2-3)[GalNAc(b1-4)]Gal(b1-4)GlcNAc
Method in brief: as §1

[6] = molecular target: Neu5Ac(a2-3)[Neu5Ac(a2-6)]GalNAc
Method in brief: as §1

[7] = molecular target: Neu5Ac(a2-6)Gal
Method in brief: as §1

[8] = molecular target: Neu5Ac(a2-6)Gal(b1-4)Glc
Method in brief: as §1

[9] = molecular target: Neu5Ac(a2-6)Gal(b1-4)GlcNAc
Method in brief: as §1

[10] = molecular target: Neu5Ac(a2-6)Gal(b1-4)GlcNAc(b1-2)Man(a1-3)[Gal(b1-4)GlcNAc(b1-2)Man(a1-6)]Man(b1-4)GlcNAc(b1-4)GlcNAc
Method in brief: as §1

[11] = molecular target: Neu5Ac(a2-6)Gal(b1-4)GlcNAc(b1-2)Man(a1-3)[GlcNAc(b1-2)Man(a1-6)]Man(b1-4)GlcNAc(b1-4)GlcNAc
Method in brief: as §1

[12] = molecular target: Neu5Ac(a2-6)Gal(b1-4)GlcNAc(b1-2)Man(a1-3)[GlcNAc(b1-2)Man(b1-4)GlcNAc(b1-2)Man(a1-6)]Man(b1-4)GlcNAc(b1-4)GlcNAc
Method in brief: as §1

[13] = molecular target: Neu5Ac(a2-6)Gal(b1-4)GlcNAc(b1-2)Man(a1-3)[Neu5Ac(a2-6)Gal(b1-4)GlcNAc(b1-2)Man(a1-6)]Man(b1-4)GlcNAc(b1-4)GlcNAc
Method in brief: as §1

[14] = molecular target: Neu5Ac(a2-6)Gal(b1-4)GlcNAc(b1-2)Man(a1-6)[Gal(b1-4)GlcNAc(b1-2)Man(a1-3)]Man(b1-4)GlcNAc(b1-4)GlcNAc
Method in brief: as §1

[15] = molecular target: Neu5Ac(a2-6)Gal(b1-4)GlcNAc(b1-2)Man(a1-6)[GlcNAc(b1-2)Man(a1-3)]Man(b1-4)GlcNAc(b1-4)GlcNAc
Method in brief: as §1

[16] = molecular target: Neu5Ac(a2-6)Gal(b1-4)GlcNAc(b1-3)Gal(b1-4)GlcNAc
Method in brief: as §1

[17] = molecular target: Neu5Ac(a2-6)Gal(b1-4)GlcNAc(b1-3)Gal(b1-4)[Fuc(a1-3)]GlcNAc(b1-3)Gal(b1-4)[Fuc(a1-3)]GlcNAc
Method in brief: as §1

[18] = molecular target: Neu5Ac(a2-6)Gal(b1-4)GlcNAc6S
Method in brief: as §1

[19] = molecular target: Neu5Ac(a2-6)GalNAc
Method in brief: as §1

[20] = molecular target: Neu5Ac(a2-6)GalNAc(b1-4)GlcNAc
Method in brief: as §1

[21] = molecular target: Neu5Ac(a2-8)Neu5Ac
Method in brief: as §1

[22] = molecular target: Neu5Ac(a2-8)Neu5Ac(a2-3)Gal(b1-4)Glc
Method in brief: as §1

[23] = molecular target: Neu5Ac(a2-8)Neu5Ac(a2-3)[GalNAc(b1-4)]Gal(b1-4)Glc
Method in brief: as §1

[24] = molecular target: Neu5Ac(a2-8)Neu5Ac(a2-8)Neu5Ac
Method in brief: as §1

[25] = molecular target: Neu5Ac(a2-8)Neu5Ac(a2-8)Neu5Ac(a2-3)Gal(b1-4)Glc
Method in brief: as §1

[26] = molecular target: Neu5Ac(a2-8)Neu5Ac(a2-8)Neu5Ac(a2-3)[GalNAc(b1-4)]Gal(b1-4)Glc
Method in brief: as §1

[27] = molecular target: Neu5Ac(a2-8)Neu5Ac(a2-8)Neu5Ac(a2-8)Neu5Ac(a2-3)[GalNAc(b1-4)]Gal(b1-4)Glc
Method in brief: as §1

[28] = molecular target: Neu5Ac(b2-6)Gal(b1-4)GlcNAc
Method in brief: as §1

[29] = molecular target: Neu5Ac(b2-6)GalNAc
Method in brief: as §1

[30] = molecular target: Neu5Ac9Ac(a2-6)Gal(b1-4)GlcNAc
Method in brief: as §1

[31] = molecular target: Neu5Gc(a2-3)Gal(b1-3)GlcNAc
Method in brief: as §1

[32] = molecular target: Neu5Gc(a2-3)Gal(b1-3)[Fuc(a1-4)]GlcNAc
Method in brief: as §1

[33] = molecular target: Neu5Gc(a2-3)Gal(b1-4)Glc
Method in brief: as §1

[34] = molecular target: Neu5Gc(a2-3)Gal(b1-4)GlcNAc
Method in brief: as §1

[35] = molecular target: Neu5Gc(a2-3)Gal(b1-4)[Fuc(a1-3)]GlcNAc
Method in brief: as §1

[36] = molecular target: Neu5Gc(a2-6)Gal(b1-4)GlcNAc
Method in brief: as §1

[37] = molecular target: Neu5Gc(a2-6)GalNAc
Method in brief: as §1

[38] = molecular target: Neu5Gc(b2-6)Gal(b1-4)GlcNAc
Method in brief: as §1

B1: Ficolin A (Rattus norvegicus), Q9WTS8 (protein)
chain: MWWPMLWAFPVLLCLCSSQALGQESGACPDVKIVGLGAQDKVAVIQSCPSFPGPPGPKGEPGSPAGRGERGLQGSPGKMGPPGSKGEPGTMGPPGVKGEKGERGTASPLGQKELGDALCRRGPRSCKDLLTRGIFLTGWYTIYLPDCRPLTVLCDMDVDGGGWTVFQRRVDGSINFYRDWDSYKRGFGNLGTEFWLGNDYLHLLTANGNQELRVDLREFQGQTSFAKYSSFQVSGEQEKYKLTLGQFLEGTAGDSLTKHNNMAFSTHDQDNDTNGGKNCAALFHGAWWYHDCHQSNLNGRYLPGSHESYADGINWLSGRGHRYSYKVAEMKIRAS
[1]
  glycan array binding signal (z-score): -0.109
[2]
  glycan array binding signal (z-score): -0.087
[3]
  glycan array binding signal (z-score): -0.121
[4]
  glycan array binding signal (z-score): 0.265
[5]
  glycan array binding signal (z-score): -0.117
[6]
  glycan array binding signal (z-score): -0.1
[7]
  glycan array binding signal (z-score): -0.042
[8]
  glycan array binding signal (z-score): -0.094
[9]
  glycan array binding signal (z-score): -0.048
[10]
  glycan array binding signal (z-score): 0.007
[11]
  glycan array binding signal (z-score): -0.108
[12]
  glycan array binding signal (z-score): 0.086
[13]
  glycan array binding signal (z-score): -0.029
[14]
  glycan array binding signal (z-score): -0.062
[15]
  glycan array binding signal (z-score): -0.102
[16]
  glycan array binding signal (z-score): -0.028
[17]
  glycan array binding signal (z-score): -0.078
[18]
  glycan array binding signal (z-score): -0.051
[19]
  glycan array binding signal (z-score): -0.084
[20]
  glycan array binding signal (z-score): -0.09
[21]
  glycan array binding signal (z-score): 0.58
[22]
  glycan array binding signal (z-score): -0.103
[23]
  glycan array binding signal (z-score): -0.068
[24]
  glycan array binding signal (z-score): -0.081
[25]
  glycan array binding signal (z-score): -0.087
[26]
  glycan array binding signal (z-score): -0.047
[27]
  glycan array binding signal (z-score): -0.064
[28]
  glycan array binding signal (z-score): 1.16
[29]
  glycan array binding signal (z-score): -0.055
[30]
  glycan array binding signal (z-score): -0.047
[31]
  glycan array binding signal (z-score): -0.028
[32]
  glycan array binding signal (z-score): -0.037
[33]
  glycan array binding signal (z-score): -0.099
[34]
  glycan array binding signal (z-score): -0.087
[35]
  glycan array binding signal (z-score): -0.11
[36]
  glycan array binding signal (z-score): -0.031
[37]
  glycan array binding signal (z-score): -0.035
[38]
  glycan array binding signal (z-score): -0.107
